For one molecule, Kd results are on record in publication PMC4243993, “The role of zinc in the stability of the marginally stable IscU scaffold protein” (Protein Science : A Publication of the Protein Society, 2014).

Broadly, the Kd is the constant that tells how readily two partners part at equilibrium. A lower Kd goes with a tighter complex.

For this test, the target named is T1, IscS (E. coli, UniProt P0A6B7 1-404, biotin (biotinylated IscS; site not stated)).
T1 construct: IscS, cysteine desulfurase, the main partner of IscU; also called desulfurase IscS; biotinylated IscS
T1 sequence: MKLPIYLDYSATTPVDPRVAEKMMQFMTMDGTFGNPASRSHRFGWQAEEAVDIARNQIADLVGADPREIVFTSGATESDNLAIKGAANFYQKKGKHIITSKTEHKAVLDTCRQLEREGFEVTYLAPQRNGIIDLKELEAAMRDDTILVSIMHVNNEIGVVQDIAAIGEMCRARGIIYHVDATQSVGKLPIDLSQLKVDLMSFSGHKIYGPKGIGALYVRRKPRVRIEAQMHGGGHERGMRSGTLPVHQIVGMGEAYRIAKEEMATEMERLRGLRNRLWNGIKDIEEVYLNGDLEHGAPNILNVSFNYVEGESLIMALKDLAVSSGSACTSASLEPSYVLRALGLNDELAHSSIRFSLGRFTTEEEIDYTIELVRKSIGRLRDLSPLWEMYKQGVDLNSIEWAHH
Briefly: BLI; biotinylated IscS immobilised on streptavidin-coated biosensors; IscU as purified (EDTA untreated), 0-5 uM; 25°C; 20 mM HEPES pH 7.5, 150 mM NaCl, 2 mM TCEP, 0.5 mg/mL BSA; aerobic; Octet Red. Particulars: both partners purified. A general note: Biolayer interferometry detects binding as a change in optical thickness at a sensor tip.

B1: E. coli IscU_wt (natural protein)
chain: AYSEKVIDHYENPRNVGSFDNNDENVGSGMVGAPACGDVMKLQIKVNDEGIIEDARFKTYGCGSAIASSSLVTEWVKGKSLDEAQAIKNTDIAEELELPPVKIHCSILAEDAIKAAIADYKSKREAK
notes: IscU, iron-sulfur cluster scaffold protein of E. coli; wild type; also called IscU as purified; Zn^2+ free IscU; source: E. coli overexpression, purified (Ni-NTA, TEV cleavage from GST, Superdex 75 gel filtration)
With B1, the affinity, expressed as Kd, was 1500 ± 300 nM.
